Measured values: PMC4336329 (PLoS ONE, 2015)
The campaign covered roughly 310,000 compounds. About 14,000 (4.5%) showed an effect of 50% or more. Effects have a minus sign here. This is one part of the list.

Molecular target: human ether-à-go-go-related gene (hERG) potassium channel (human, UniProt Q12809)
Test: primary screen, population patch clamp on CHO cells stably expressing hERG
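Further: peak tail current of the secondary pulse compared with the same well before compound.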

human ether-à-go-go-related gene (hERG) potassium channel, sequence (Q12809 whole entry, looked up): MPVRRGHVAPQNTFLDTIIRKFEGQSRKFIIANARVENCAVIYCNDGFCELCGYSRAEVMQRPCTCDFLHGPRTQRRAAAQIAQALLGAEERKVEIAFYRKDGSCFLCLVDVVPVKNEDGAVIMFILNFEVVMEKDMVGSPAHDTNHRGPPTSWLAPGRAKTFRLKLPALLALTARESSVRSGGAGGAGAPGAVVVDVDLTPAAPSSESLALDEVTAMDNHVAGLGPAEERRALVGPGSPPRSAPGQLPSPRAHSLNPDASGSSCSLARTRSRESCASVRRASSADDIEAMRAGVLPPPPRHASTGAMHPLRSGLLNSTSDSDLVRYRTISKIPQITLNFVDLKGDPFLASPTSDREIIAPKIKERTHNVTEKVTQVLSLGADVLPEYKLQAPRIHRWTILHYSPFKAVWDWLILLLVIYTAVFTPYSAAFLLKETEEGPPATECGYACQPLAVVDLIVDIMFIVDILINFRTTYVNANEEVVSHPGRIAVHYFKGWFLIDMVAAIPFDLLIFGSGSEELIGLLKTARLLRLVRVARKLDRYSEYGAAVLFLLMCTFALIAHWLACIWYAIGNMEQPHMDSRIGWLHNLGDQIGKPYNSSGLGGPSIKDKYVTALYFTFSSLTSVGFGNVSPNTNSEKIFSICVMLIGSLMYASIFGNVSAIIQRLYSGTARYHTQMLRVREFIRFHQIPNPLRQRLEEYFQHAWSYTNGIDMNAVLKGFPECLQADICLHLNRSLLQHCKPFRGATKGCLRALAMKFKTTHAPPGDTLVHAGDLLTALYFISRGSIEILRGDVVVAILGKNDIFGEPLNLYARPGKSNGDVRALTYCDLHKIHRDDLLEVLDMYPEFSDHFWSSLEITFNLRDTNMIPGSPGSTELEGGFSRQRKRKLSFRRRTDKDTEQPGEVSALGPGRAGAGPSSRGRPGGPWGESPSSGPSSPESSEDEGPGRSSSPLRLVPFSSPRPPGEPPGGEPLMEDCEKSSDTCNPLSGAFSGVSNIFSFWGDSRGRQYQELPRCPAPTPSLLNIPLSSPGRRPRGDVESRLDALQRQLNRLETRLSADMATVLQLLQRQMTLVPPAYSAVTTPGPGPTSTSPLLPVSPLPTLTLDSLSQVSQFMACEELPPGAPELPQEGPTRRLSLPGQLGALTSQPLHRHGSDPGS

| SMILES | hERG current change (%, negative = inhibition) at 10uM [%] |
| --- | --- |
| O=C1CSC(=S)N1/N=C/c1ccc(C(F)(F)F)cc1 | 21.4 |
| CCOC(=O)C1(Cc2ccccc2Cl)CCN(S(=O)(=O)N(C)C)CC1 | -13.3 |
| OC1(C#CCCN2CCCCC2)c2ccccc2-c2ccccc21 | -25.3 |
| Cc1cccc(C(C(=O)NCc2ccc(F)cc2)N(C(=O)c2csnn2)C2CC2)c1 (centres unmarked) | -20.7 |
| COc1ccc(N2CCN(C(=O)CN(c3cccc(OC)c3)S(=O)(=O)c3ccccc3)CC2)cc1 | -19.4 |
| CCC(C)(C)n1nnnc1C(c1ccc2ncccc2c1)N1CCN(c2ccc(O)cc2)CC1 (centres unmarked) | -31.7 |
| FC(F)(F)c1cnc(C(c2ccccc2)c2ncn[nH]2)c(Cl)c1 (centres unmarked) | 16.8 |
| Cc1oc(-c2ccc(Cl)cc2)nc1CSCC(=O)NCCCN1CCOCC1 | -5.13 |
| COc1ccccc1C(=O)Nc1ccc(OCC(=O)N2CC(C)CC(C)C2)cc1 (centres unmarked) | -10.2 |
| CCN(CC)c1nc(C#N)cc(-c2ccc(OC)cc2)n1 | 1.52 |
| O=C(OC1CCOC1=O)c1ccc(Cl)c(S(=O)(=O)N2CCCCC2)c1 (centres unmarked) | -4.58 |
| CN(C)/C=C/C=C1C(=O)CCCC1=O | -4.38 |
| COC(=O)C1(C)NC(c2ccc(Cl)cc2)C2C(=O)N(c3ccccc3)C(=O)C21 (centres unmarked) | -3.27 |
| COc1ccc(CC(=O)NC(c2ccccc2)c2ccc(C)cc2)c(OC)c1 (centres unmarked) | 11.3 |
| Nc1nc(SCc2ccc([N+](=O)[O-])cc2)nc2nc3c(cc12)CCCC3 | 9.35 |
| COc1ccc(NC(=O)CC23CC4CC(CC(C4)C2)C3)cn1 | 2.19 |
| O=C(O)c1cccc(NC2=Nc3cccc4cccc2c34)c1 | 14.3 |
| O=C(Nc1ccc2nc3n(c(=O)c2c1)CCCCC3)c1ccccc1Cl | -45.6 |
| COc1cc(C(=O)Nc2ccccc2C(=O)Nc2ccccn2)cc(OC)c1OC | -22.5 |
| O=C(Nc1ccc(-c2nc3ccccc3o2)cc1)c1ccc2c(c1)OCO2 | 11 |
| Cc1nn(C)c(C)c1S(=O)(=O)Nc1ccc2c(c1)OCO2 | 6.46 |
| Cc1ccnc(NCc2ccc(Br)cc2)c1 | -1.01 |

| SMILES | hERG current change (%, negative = inhibition) at 10uM [%] |
| --- | --- |
| CCCC(=O)NCCc1cc2ccc(C)c(C)c2[nH]c1=O | 5.38 |
| COCCN1C(=O)N[C@H](c2cccc(C(F)(F)F)c2)C(C(=O)OC)=C1C | -31.7 |
| Cc1ccc(S(=O)(=O)NC2OC(=O)C(Cl)=C2Cl)cc1 (centres unmarked) | -3.55 |
| CCOC(=O)c1ccc(N=C(CC)c2c(O)n(C)c(=O)n(C)c2=O)cc1 | -4.89 |
| Cc1ccc(S(=O)(=O)CCC(=O)Nc2cc(Cl)ccc2-n2cncn2)cc1 | -23.6 |
| COc1ccc(-c2nnc(SCC(=O)N3CCOCC3)o2)cc1 | -1.92 |
| O=S(=O)(c1ccc(Cl)cc1)N1CCSC1c1ccco1 (centres unmarked) | -22.5 |
| O=c1cc(-c2ccc(O)cc2)oc2ccc3ccccc3c12 | 5.27 |
| CCOc1ccc(OCC(=O)OCC(=O)NCC2CCCO2)cc1 (centres unmarked) | 12.2 |
| Fc1cccc(/C=N/NC(=S)Nc2ccccc2Cl)c1 | 10.6 |
| CCOc1cc(/C=N/O)cc(Br)c1OCc1ccc(Cl)cc1 | 14.1 |
| O=[N+]([O-])c1ccc(OCc2cn([C@@H](CO)c3ccccc3)nn2)c(Br)c1 | -10.3 |
| Clc1ccc(CON/C=N/c2ncnc3sccc23)cc1 | 18.7 |
| O=C(CCSc1ccccc1)N1CCOCC1 | 13.3 |
| CN(C)/C=N/S(=O)(=O)c1ccc(Cl)cc1 | 6.32 |
| Cc1cc2ncn(C(=O)N3CCCC3)c2cc1C | 20.9 |
| CCCCC(C(=O)NC(C)(C)C)N(Cc1ccco1)C(=O)c1snc(C(N)=O)c1N (centres unmarked) | -11.2 |
| CC(C)(C)C1CCC(=NNc2ncc(C(F)(F)F)cc2Cl)CC1 (centres unmarked) | -2.01 |
| CCN(CC)CC(=O)c1c[nH]c2ccc(C)cc12 | -20.3 |
| CCOc1ccccc1-n1c(SCC(=O)NCc2ccco2)nnc1-c1ccncc1 | -10.5 |
| Cc1ccccc1-c1nnc(SCC(=O)N2CCCC2)o1 | 14.4 |
| CCN1CCN(c2ccc(S(=O)(=O)N3CCOCC3)cc2NC(=O)c2ccc(C)cc2C)CC1 | -30 |
